From the supplement of paper PMC10338343 come the findings set out here.

± gives the standard deviation. The full ranking holds about 6,600 sequences; the median of “pre-steady-state target cleavage rate” is about 0.07, and the highest 2% start at about 0.72. Only a part is listed here, and it is no random draw. Some results are limits rather than exact numbers.

The test system of the assay is MIWI (PIWIL1) piRISC loaded with Kctd7 piRNA (30 nt). The experiment in a line: pre-steady-state target cleavage rate (min^-1); MIWI and MILI are mouse PIWI proteins and EfPiwi is from a freshwater sponge; tags in brackets are library labels; higher = faster piRNA-guided slicing of the target. To be noted: guide: Kctd7 piRNA 5'p-UGUUAAUCUCUCAGAGAAGGUGACAGUGAU; auxiliary factor: 500 nM mouse GTSF1. Put shortly: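 The pre-steady-state cleavage rate was obtained by Cleave-'n-Seq with a burst-and-steady-state fit. A transcribed, DNA-blocked target RNA library (0.1 nM) was mixed with 1 nM active affinity-purified piRISC carrying one synthetic guide, with or without 500 nM GTSF1 partner protein, in HEPES–potassium acetate buffer at 33 °C for 0–8 or 0–960 min. Uncleaved targets were sequenced and normalised to depth and to weakly complementary targets, with three trials pooled and k3 capped at 0.0001 min^-1.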
With UAGUGACACACCUUCUCUGAGAGCUUAACA, the “pre-steady-state target cleavage rate” value amounted to 0.183 ± 0.024.

With UACAGUGUCACCUUCACUGAGAGAUUAACA, the “pre-steady-state target cleavage rate” value was determined as 0.435 ± 0.028.

For the sequence UAGUGAGUCACGUACUCUGAGAGAUUAACA, the “pre-steady-state target cleavage rate” value came to 0.12 ± 0.013.

As to UAGUGACACUGGUUCUCUGAGAGAUUAACA, the “pre-steady-state target cleavage rate” value was found to be 0.0768 ± 0.0071.

With UAGUGACUCACCUUCUCUCAGACAUUAACA, the “pre-steady-state target cleavage rate” value came to 0.0177 ± 0.0033.

In the case of UAGUGACAGACCUUGUCUGAGUGAUUAACA, the “pre-steady-state target cleavage rate” value turned out to be 0.0081 ± 0.0029.

Turning to UAGUGUGUCACCUUGUCUGUGAGAUUAACA, the “pre-steady-state target cleavage rate” value amounted to 0.125 ± 0.012.

As for UUCACUGUCACCUUCUCUGUCUGAUUAUGA, the “pre-steady-state target cleavage rate” value amounted to 0.0123 ± 0.0065.

As for UACACUGUCACGUUCUGUGAGAGAUUAACA, the “pre-steady-state target cleavage rate” value turned out to be 0.461 ± 0.034.

As for UAGUGUGUCAACCUUCUCUGAGAGAUUAACA, the “pre-steady-state target cleavage rate” value worked out at 0.211 ± 0.017.

Turning to UAGACUGUCACCUUCAUCUGAGAGAUUAACA, the “pre-steady-state target cleavage rate” value was 0.11 ± 0.025.

On to UAGACUGUCACCUUCUCUGAGAGAGUUAACA, for which the “pre-steady-state target cleavage rate” value is 0.488 ± 0.065.

Turning to UAGACUGUCACGCUUCUCUGAGAGAUUAACA, the “pre-steady-state target cleavage rate” value turned out to be 0.563 ± 0.029.

On to AUCUCUGUCACCUUCUCUGAGAGAAUAACA, for which the “pre-steady-state target cleavage rate” value came to 0.462 ± 0.078.

On to UAGUGUGUCACCUUCUCUGAGACUUUUUGA, for which the “pre-steady-state target cleavage rate” value was found to be 0.00865 ± 0.0054.

On to UACACUGUCACCUUCUCUGAGAGGUUAACA, for which the “pre-steady-state target cleavage rate” value stood at 0.322 ± 0.025.

AUCACUGUCACCUUCUCUCAGUGAUUAACA: the “pre-steady-state target cleavage rate” value came to 0.00637 ± 0.0031.

Turning to UAGUCUGUCACCUUCUCACAGAGAUUAAGA, the “pre-steady-state target cleavage rate” value turned out to be 0.00417 ± 0.0035.

As to UAGUGACAGACCUUCUGUGAGAGAUUAUCA, the “pre-steady-state target cleavage rate” value turned out to be 0.0129 ± 0.0034.

For UAGUGUGUGACCUUCUCUGAGACAUUAACA, the “pre-steady-state target cleavage rate” value was determined as 0.0289 ± 0.0064.

With UAGUGACAGACCUUCUCUGAGAGAUUACA, the “pre-steady-state target cleavage rate” value was found to be 0.0295 ± 0.0081.

In the case of UACACUGUCUCCUUCUCUGAGAGAUAUUGA, the “pre-steady-state target cleavage rate” value came to 0.0127 ± 0.0054.

Take UAGUGACACAGCUACUCUGAGAGAUUAACA: the “pre-steady-state target cleavage rate” value turned out to be 0.00832 ± 0.0023.

In the case of UAGUGUGUCACGAUCUCUGAGAGAUUAUGA, the “pre-steady-state target cleavage rate” value amounted to 0.00921 ± 0.0042.

As to UAGUCACACACCUUCUCUGAGAGAUUAACA, the “pre-steady-state target cleavage rate” value worked out at 0.569 ± 0.031.

Turning to AUCUCUGUCACCUUCUCUGAGAGAUAUUGA, the “pre-steady-state target cleavage rate” value is 0.0684 ± 0.017.

Take UACACUGUCUCCUUCUCUGUGAGAUUAACA: the “pre-steady-state target cleavage rate” value worked out at 0.246 ± 0.017.

For the sequence UACUCUGUCACCUUCUCUGAGAGAUUAAGA, the “pre-steady-state target cleavage rate” value stood at 0.135 ± 0.021.

For the sequence UAGUGUGACACCUUCUCUGAGAGAUUAACA, the “pre-steady-state target cleavage rate” value amounted to 0.536 ± 0.026.

In the case of UAGACUGUCACCUUGACUGAGAGAUUAACA, the “pre-steady-state target cleavage rate” value came out at 0.0808 ± 0.014.

As to UUCAGUCUCACCUUCUCUGAGAGAUUAACA, the “pre-steady-state target cleavage rate” value came out at 0.547 ± 0.023.

Regarding UAGUCUGUCACCUUCUCUGAGAGUAUAACA, the “pre-steady-state target cleavage rate” value is 0.155 ± 0.02.

For AUCACUGUCACCUUCUGUGAGAGUUUAACA, the “pre-steady-state target cleavage rate” value is 0.264 ± 0.037.

With AUCACUGUGACCUUCUCUGAGAGAUUUUGA, the “pre-steady-state target cleavage rate” value amounted to 0.0531 ± 0.011.

For the sequence UACACUGUCACCUUCUCUCGAGAGAUUAACA, the “pre-steady-state target cleavage rate” value turned out to be 0.16 ± 0.059.

Consider AUCGCUGUCACCUUCUCUGAGAGAUUAACA, for which the “pre-steady-state target cleavage rate” value was found to be 0.825 ± 0.042.

On to UAGUGUGUCACGAUCUCUGAGAGAUUAAGA, for which the “pre-steady-state target cleavage rate” value amounted to 0.0773 ± 0.013.

On to UUCACUGUGUCCUUCUCUGAGAGAUUAUGA, for which the “pre-steady-state target cleavage rate” value is 0.102 ± 0.02.

With UAGACUGUCACCUUGCUCUGAGAGAUUAACA, the “pre-steady-state target cleavage rate” value was determined as 0.358 ± 0.049.

In the case of UAGUGAGUCACCUUCUCUGAGAGUAUUAACA, the “pre-steady-state target cleavage rate” value amounted to 0.272 ± 0.026.

Regarding UUCUCUGUCUCCUUCUCUGAGAGAUUAACA, the “pre-steady-state target cleavage rate” value came out at 0.539 ± 0.034.

UACUCUGUCACCUACUCUGAGAGAUUAACA: the “pre-steady-state target cleavage rate” value turned out to be 0.588 ± 0.038.

In the case of UAGUGAGUGACCUUCUCAGAGAGAUUAACA, the “pre-steady-state target cleavage rate” value is 0.226 ± 0.026.

In the case of UACACUGUCACCUUCUCUGAGAGAUGAACA, the “pre-steady-state target cleavage rate” value is 0.164 ± 0.029.

For UAGUGACAGUCCUUCAUCUGAGAGAUUAACA, the “pre-steady-state target cleavage rate” value came to 0.00688 ± 0.0025.

On to UAGUGACACACCUUCUCUGAGAGAGUUAACA, for which the “pre-steady-state target cleavage rate” value amounted to 0.32 ± 0.048.

In the case of UAGUGACACACUUUCUCUGAGAGAUUAACA, the “pre-steady-state target cleavage rate” value came to 0.496 ± 0.03.

With UAGUGUGUCAGCUUGUCUGAGAGAUUAACA, the “pre-steady-state target cleavage rate” value turned out to be 0.313 ± 0.016.

Take UAGUGACAGACUCUUCUCUGAGAGAUUAACA: the “pre-steady-state target cleavage rate” value is 0.0358 ± 0.004.

UAGUGACUUCACCUUCUCUGAGAGAUUAACA: the “pre-steady-state target cleavage rate” value stood at 0.652 ± 0.038.

As for UAGUGACAGUGCUUCUCUGAGGGAUUAACA, the “pre-steady-state target cleavage rate” value is 0.0108 ± 0.0037.

As to UACACUGUCACCAUCUCUGAGACAUUAACA, the “pre-steady-state target cleavage rate” value was 0.108 ± 0.014.

AUCACUCUCACCUUCUGUGAGAGAUUAACA: the “pre-steady-state target cleavage rate” value was found to be 0.0764 ± 0.011.

For the sequence UAGUGACACACCUUGUCUGAGAGUUUAACA, the “pre-steady-state target cleavage rate” value was determined as 0.0353 ± 0.013.

In the case of AUCUCUCUCACCUUCUCUGAGAGAUUAACA, the “pre-steady-state target cleavage rate” value is 0.214 ± 0.023.

As for UUCACUGUCACCUUCUCUGAGAGUAAAAGA, the “pre-steady-state target cleavage rate” value stood at 0.0745 ± 0.022.

Take AUCACUGACACCUUCUCUGACAGAUUAACA: the “pre-steady-state target cleavage rate” value worked out at 0.418 ± 0.022.

Consider UUCACUGUCACCUUCUCUGACAGAUUAUCA, for which the “pre-steady-state target cleavage rate” value was found to be 0.0212 ± 0.0064.

As for UAGUGACAGACCUUCUCUGAGAGAUUACCA, the “pre-steady-state target cleavage rate” value came out at 0.0674 ± 0.012.

As to UAGUGACAGUGGAAGAGACAGAAAUUAACA, the “pre-steady-state target cleavage rate” value was less than 0.0001.

As for UACACUGUCACCUUCUGUGAGAGAUUAUCA, the “pre-steady-state target cleavage rate” value came to 0.0501 ± 0.013.

For UAGUGACACACCUUCUCUGAGAGAUUAAGA, the “pre-steady-state target cleavage rate” value stood at 0.155 ± 0.029.

Turning to UAGUGUGUCACCUUCUCUCACAGAUUAACA, the “pre-steady-state target cleavage rate” value was 0.0203 ± 0.0078.

UUCACUGUCACCUUCUCUGAGACUUUAAGA: the “pre-steady-state target cleavage rate” value worked out at 0.0101 ± 0.0043.

UACACUGUCACCUUCUCUGAGAGAAUUACA: the “pre-steady-state target cleavage rate” value came to 0.221 ± 0.053.

UAGUGACUGACCUUCUCUGAGAGAUUAAGA: the “pre-steady-state target cleavage rate” value worked out at 0.052 ± 0.011.

Regarding “UAGUGACAGUCCUUCUCUGAGAGUAAUUGA [g8:g20:cont:t1A]”, the “pre-steady-state target cleavage rate” value is less than 0.0001.

As to UAGUGACACACCUUCUCUGAGAGUUAAACA, the “pre-steady-state target cleavage rate” value amounted to 0.0294 ± 0.0094.

As for AAGACUGUCACCUUCUCUGAGAGAUUUUGA, the “pre-steady-state target cleavage rate” value was determined as 0.00833 ± 0.0033.

For the sequence UACACUGUCAGGUUCUCUGAGAGAUUAAGA, the “pre-steady-state target cleavage rate” value was found to be 0.0532 ± 0.0098.

As for AUCACUGUGUCCUUCUCUGAGAGAUAUUGA, the “pre-steady-state target cleavage rate” value is 0.0103 ± 0.0042.
